Experimental data: patent US10299477B2 (priority 2015, dated 2019)

Assays:
Format in all cases: in vivo
Puccinia recondita = experiment: Test Example E: Brown rust on wheat; settings: for Test E control value (brown rust on wheat): preventive, control value class; for Test E (control value class, brown rust on wheat): in vivo
Text: [Test Example E] Brown Rust on Wheat

Plasmopara viticola = experiment: Test Example G: Downy mildew on vine; settings: for Test G control value (downy mildew on vine): 250 ppm spray (2.5 ml/pot), preventive, control value class; for Test G (control value class): 250 ppm spray; for Test G (control value class, downy mildew on vine): 250 ppm, sprayed 2.5 ml/pot before inoculation
Text: [Test Example G] Downy Mildew on Vine
Seeds of a test plant (grape variety: Neomuscat) were planted followed by cultivating until three to four first leaves appeared. […] After the sprayed dilutions were dried, a zoosporangia suspension (1-2×10^4 zoosporangia/ml) of Plasmopara viticola was inoculated to the plants by spraying.

Botrytis cinerea = experiment: Test Example B: Gray mold on tomato; settings: for Test B control value (gray mold on tomato): preventive, control value class; for Test B (control value class, gray mold on tomato): in vivo
Text: [Test Example B] Gray Mold on Tomato
Seeds of a test plant (tomato variety: Oogata Fukuju) were planted followed by cultivating until three to five first leaves (true leaves) appeared.

Alternaia brassicicola = experiment: Test Example C: Alternaria sooty spot on cabbage; settings: for Test C control value (Alternaria sooty spot on cabbage): preventive, control value class; for Test C (control value class): Alternaria sooty spot on cabbage; for Test C (control value class, Alternaria sooty spot on cabbage): in vivo
Text: [Test Example C] Alternaria Sooty Spot on Cabbage
Seeds of a test plant (cabbage variety: Shikidori) were planted followed by cultivating until the cotyledons extended.

[1] = test system: Blumeria graminis f sp. hordei; experiment: Test Example D: Powdery mildew on barley; settings: for Test D control value (powdery mildew on barley): preventive, control value class; for Test D (control value class, powdery mildew on barley): in vivo
Text: [Test Example D] Powdery Mildew on Barley
After the sprayed dilutions were dried, conidia of Blumeria graminis f sp. hordei were inoculated to the plants by shaking off.

[2] = brown rust on wheat, Puccinia recondita, 250 ppm spray
[3] = downy mildew on vine, Plasmopara viticola, 7-10 days after inoculation
[4] = gray mold on tomato, Botrytis cinerea, 250 ppm spray
[5] = powdery mildew on barley, 250 ppm spray
[6] = evaluated 7-10 days after inoculation
[7] = Brown rust on wheat, control value=100{1-(n/3)}
[8] = Downy mildew on vine, 2.5 ml/pot, evaluated 7-10 days after inoculation
[9] = Gray mold on tomato, control value=100{1-(n/3)}
[10] = Powdery mildew on barley, control value=100{1-(n/3)}

Row | SMILES | Test E control value (brown rust on wheat) (Puccinia recondita; 250 ppm spray) | Test G control value (downy mildew on vine) (Plasmopara viticola; 7-10 days after inoculation) | Test B control value (gray mold on tomato) (Botrytis cinerea; 250 ppm spray) | Test C control value (Alternaria sooty spot on cabbage) (Alternaia brassicicola; 250 ppm spray) | Test D control value (powdery mildew on barley) ([1]; 250 ppm spray) | Test E (control value class) (Puccinia recondita; [2]) | Test G (control value class) (Plasmopara viticola; [3]) | Test B (control value class) (Botrytis cinerea; [4]) | Test C (control value class) (Alternaia brassicicola; 250 ppm spray) | Test D (control value class) [1, 5] | further results
1 | CCCCCOc1ccc(Cl)c(-c2ccc(=O)n(CC)c2-c2c(F)cccc2F)c1 [Compound 254] | L (L shows 50% or less of control values) | H (H shows more than 50% of control values) | L (L shows 50% or less of control values) | H (H shows more than 50% of control values) | H (H shows more than 50% of control values) | – | – | – | – | – | –
2 | Cn1c(-c2c(F)cccc2F)c(-c2ccc(Cl)cc2F)ccc1=O [Compound 418] | – | – | – | – | – | H (H shows more than 50% of control values) | L (L shows 50% or less of control values) | H (H shows more than 50% of control values) | H (H shows more than 50% of control values) | L (L shows 50% or less of control values) | –
3 | Cn1c(-c2c(F)cccc2F)c(-c2cc(OCC#N)ccc2Cl)ccc1=O [Compound 236] | H (H shows more than 50% of control values) | H (H shows more than 50% of control values) | H (H shows more than 50% of control values) | H (H shows more than 50% of control values) | H (H shows more than 50% of control values) | – | – | – | – | – | –
4 | Cn1c(-c2c(F)cc(Cl)cc2F)c(-c2cc(F)ccc2Cl)cc(Br)c1=O [Compound 606] | – | – | – | – | – | – | – | – | – | – | Test E (control value class, brown rust on wheat) (Puccinia recondita): H (H shows more than 50% of control values); Test G (control value class, downy mildew on vine) (Plasmopara viticola; [6]): L (L shows 50% or less of control values); Test B (control value class, gray mold on tomato) (Botrytis cinerea): H (H shows more than 50% of control values); Test C (control value class, Alternaria sooty spot on cabbage) (Alternaia brassicicola): H (H shows more than 50% of control values); Test D (control value class, powdery mildew on barley) [1]: H (H shows more than 50% of control values)
5 | Cn1c(-c2c(F)cccc2F)c(-c2cc(F)ccc2Cl)cc(Br)c1=O [Compound 363] | H (H shows more than 50% of control values) | H (H shows more than 50% of control values) | H (H shows more than 50% of control values) | H (H shows more than 50% of control values) | H (H shows more than 50% of control values) | – | – | – | – | – | –
6 | CCCc1cc(-c2cc(OC)ccc2Cl)c(-c2c(F)cccc2F)n(CC)c1=O [Compound 370] | L (L shows 50% or less of control values) | L (L shows 50% or less of control values) | H (H shows more than 50% of control values) | H (H shows more than 50% of control values) | L (L shows 50% or less of control values) | – | – | – | – | – | –
7 | CCn1c(-c2c(F)cc(F)cc2F)c(-c2cccc(OCOC)c2Cl)cc(Cl)c1=O [Compound 811] | – | – | – | – | – | – | – | – | – | – | Test E (control value class) (Puccinia recondita; [7]): H (H shows more than 50% of control values); Test G (control value class) (Plasmopara viticola; [8]): L (L shows 50% or less of control values); Test B (control value class) (Botrytis cinerea; [9]): H (H shows more than 50% of control values); Test C (control value class) (Alternaia brassicicola; control value=100{1-(n/3)}): H (H shows more than 50% of control values); Test D (control value class) [1, 10]: L (L shows 50% or less of control values)
8 | Cn1c(-c2c(F)cccc2F)c(-c2cc(F)ccc2Cl)cc(F)c1=O [Compound 513] | – | – | – | – | – | H (H shows more than 50% of control values) | H (H shows more than 50% of control values) | H (H shows more than 50% of control values) | H (H shows more than 50% of control values) | H (H shows more than 50% of control values) | –
9 | CCOc1cc(F)c(-c2c(-c3cccc(F)c3C)cc(Br)c(=O)n2CC)c(F)c1 [Compound 712] | – | – | – | – | – | – | – | – | – | – | Test E (control value class, brown rust on wheat) (Puccinia recondita): H (H shows more than 50% of control values); Test G (control value class, downy mildew on vine) (Plasmopara viticola; [6]): H (H shows more than 50% of control values); Test B (control value class, gray mold on tomato) (Botrytis cinerea): H (H shows more than 50% of control values); Test C (control value class, Alternaria sooty spot on cabbage) (Alternaia brassicicola): H (H shows more than 50% of control values); Test D (control value class, powdery mildew on barley) [1]: H (H shows more than 50% of control values)
10 | COc1cc(F)c(-c2c(-c3cc(F)cc(F)c3Cl)cc(Br)c(=O)n2C)c(F)c1 [Compound 717] | – | – | – | – | – | – | – | – | – | – | Test E (control value class, brown rust on wheat) (Puccinia recondita): H (H shows more than 50% of control values); Test G (control value class, downy mildew on vine) (Plasmopara viticola; [6]): H (H shows more than 50% of control values); Test B (control value class, gray mold on tomato) (Botrytis cinerea): H (H shows more than 50% of control values); Test C (control value class, Alternaria sooty spot on cabbage) (Alternaia brassicicola): H (H shows more than 50% of control values); Test D (control value class, powdery mildew on barley) [1]: H (H shows more than 50% of control values)
11 | Cn1c(-c2c(F)cc(F)cc2F)c(-c2cc(F)cc(F)c2)cc(Br)c1=O [Compound 805] | – | – | – | – | – | – | – | – | – | – | Test E (control value class) (Puccinia recondita; [7]): H (H shows more than 50% of control values); Test G (control value class) (Plasmopara viticola; [8]): L (L shows 50% or less of control values); Test B (control value class) (Botrytis cinerea; [9]): H (H shows more than 50% of control values); Test C (control value class) (Alternaia brassicicola; control value=100{1-(n/3)}): H (H shows more than 50% of control values); Test D (control value class) [1, 10]: H (H shows more than 50% of control values)
12 | Cn1c(-c2c(F)cc(F)cc2F)c(-c2ccccc2Cl)ccc1=O [Compound 431] | – | – | – | – | – | H (H shows more than 50% of control values) | H (H shows more than 50% of control values) | H (H shows more than 50% of control values) | H (H shows more than 50% of control values) | H (H shows more than 50% of control values) | –
13 | CCn1c(-c2c(F)cccc2F)c(-c2cc(F)ccc2F)cc(Br)c1=O [Compound 482] | – | – | – | – | – | H (H shows more than 50% of control values) | L (L shows 50% or less of control values) | L (L shows 50% or less of control values) | H (H shows more than 50% of control values) | L (L shows 50% or less of control values) | –
14 | CCn1c(-c2c(F)cccc2F)c(-c2cc(OCS(C)(=O)=O)ccc2Cl)ccc1=O [Compound 309] | H (H shows more than 50% of control values) | L (L shows 50% or less of control values) | H (H shows more than 50% of control values) | H (H shows more than 50% of control values) | L (L shows 50% or less of control values) | – | – | – | – | – | –
15 | CCn1c(-c2c(F)cc(OC)cc2F)c(-c2cc(F)c(F)cc2F)ccc1=O [Compound 638] | – | – | – | – | – | – | – | – | – | – | Test E (control value class, brown rust on wheat) (Puccinia recondita): H (H shows more than 50% of control values); Test G (control value class, downy mildew on vine) (Plasmopara viticola; [6]): H (H shows more than 50% of control values); Test B (control value class, gray mold on tomato) (Botrytis cinerea): H (H shows more than 50% of control values); Test C (control value class, Alternaria sooty spot on cabbage) (Alternaia brassicicola): H (H shows more than 50% of control values); Test D (control value class, powdery mildew on barley) [1]: H (H shows more than 50% of control values)
16 | Cn1c(-c2c(F)cc(F)cc2F)c(-c2cc(F)ccc2F)ccc1=O [Compound 426] | – | – | – | – | – | H (H shows more than 50% of control values) | L (L shows 50% or less of control values) | H (H shows more than 50% of control values) | H (H shows more than 50% of control values) | H (H shows more than 50% of control values) | –
17 | CCn1c(-c2c(F)cccc2F)c(-c2cc(Cl)ccc2Cl)ccc1=O [Compound 444] | – | – | – | – | – | H (H shows more than 50% of control values) | L (L shows 50% or less of control values) | H (H shows more than 50% of control values) | H (H shows more than 50% of control values) | H (H shows more than 50% of control values) | –
18 | CCN1C(=O)CCC(c2ccccc2Br)=C1c1c(F)cc(F)cc1F [Compound 650] | – | – | – | – | – | – | – | – | – | – | Test E (control value class, brown rust on wheat) (Puccinia recondita): H (H shows more than 50% of control values); Test G (control value class, downy mildew on vine) (Plasmopara viticola; [6]): L (L shows 50% or less of control values); Test B (control value class, gray mold on tomato) (Botrytis cinerea): H (H shows more than 50% of control values); Test C (control value class, Alternaria sooty spot on cabbage) (Alternaia brassicicola): H (H shows more than 50% of control values); Test D (control value class, powdery mildew on barley) [1]: H (H shows more than 50% of control values)
19 | CCn1c(-c2c(F)cc(Br)cc2F)c(-c2cc(OC)cc(OC)c2Br)ccc1=O [Compound 200] | H (H shows more than 50% of control values) | H (H shows more than 50% of control values) | H (H shows more than 50% of control values) | H (H shows more than 50% of control values) | H (H shows more than 50% of control values) | – | – | – | – | – | –
